These are yes or no findings as the source states them, for the method shown. Binding seen in cells or lysates may run through a third protein. Some binding calls cover weakened binding; strength is not graded here.
Assays:
[1] = target: WT GST-tagged Aurora B (human) (UniProt Q96GD4); assay: pull-down; 1 mg lysate of cytokinesis-enriched cells expressing Clk:GFP incubated with 10 ug glutathione-agarose-bound GST proteins for 6 h at 4 °C; 50 mM HEPES pH 7.5, 150 mM NaCl, 0.1% Tween 20; anti-GFP western blot; only the target purified
[2] = target: Cdc-like kinase 1 (endogenous Clk1) (human (endogenous in BE cells)) (UniProt P49759); assay: condition: only asynchronous cells (not enriched in cytokinesis); co-IP; asynchronous cells; lysate with anti-Clk antibody, protein A/G PLUS-agarose; endogenous proteins, western blot
[3] = target: Cdc-like kinase 2 (endogenous Clk2) (human (endogenous in BE cells)) (UniProt P49760); assay: as above
[4] = target: Cdc-like kinase 4 (endogenous Clk4) (human (endogenous in BE cells)) (UniProt Q9HAZ1); assay: as above
[5] = target: Cdc-like kinase 1 (endogenous Clk1) (human (endogenous in BE cells)) (UniProt P49759); assay: co-IP; cytokinesis-enriched BE cells (nocodazole 16 h, release 2 h); 3-4 mg lysate with 0.5 ug anti-Clk antibody for 16 h, protein A/G PLUS-agarose 1 h at 4 °C; endogenous proteins, western blot
[6] = target: Cdc-like kinase 2 (endogenous Clk2) (human (endogenous in BE cells)) (UniProt P49760); assay: as above
[7] = target: Cdc-like kinase 4 (endogenous Clk4) (human (endogenous in BE cells)) (UniProt Q9HAZ1); assay: as above

Protein sequences, listed by entry. Tags and fused reporters are not part of them.
UniProt Q96GD4: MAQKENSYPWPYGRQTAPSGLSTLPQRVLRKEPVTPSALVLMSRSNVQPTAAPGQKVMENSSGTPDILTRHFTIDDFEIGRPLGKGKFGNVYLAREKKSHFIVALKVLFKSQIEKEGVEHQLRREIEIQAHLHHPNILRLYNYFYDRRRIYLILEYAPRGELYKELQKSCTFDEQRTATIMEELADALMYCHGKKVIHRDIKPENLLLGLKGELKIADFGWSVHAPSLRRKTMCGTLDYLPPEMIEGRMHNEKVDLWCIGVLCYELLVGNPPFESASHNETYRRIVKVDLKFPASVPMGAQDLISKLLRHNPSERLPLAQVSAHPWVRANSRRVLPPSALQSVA
UniProt P49759: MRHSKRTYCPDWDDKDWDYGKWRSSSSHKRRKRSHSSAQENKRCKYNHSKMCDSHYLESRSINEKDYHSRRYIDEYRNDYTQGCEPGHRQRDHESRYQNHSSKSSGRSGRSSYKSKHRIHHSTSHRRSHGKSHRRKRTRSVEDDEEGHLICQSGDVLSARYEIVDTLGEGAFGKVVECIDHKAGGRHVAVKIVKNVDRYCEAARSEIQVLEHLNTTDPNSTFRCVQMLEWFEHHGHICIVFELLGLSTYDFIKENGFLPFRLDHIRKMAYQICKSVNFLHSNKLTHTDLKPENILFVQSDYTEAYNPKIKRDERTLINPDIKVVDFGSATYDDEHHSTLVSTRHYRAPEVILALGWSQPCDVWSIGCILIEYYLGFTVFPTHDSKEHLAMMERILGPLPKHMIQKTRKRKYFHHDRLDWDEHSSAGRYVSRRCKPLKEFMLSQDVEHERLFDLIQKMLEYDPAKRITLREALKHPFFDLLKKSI
UniProt P49760: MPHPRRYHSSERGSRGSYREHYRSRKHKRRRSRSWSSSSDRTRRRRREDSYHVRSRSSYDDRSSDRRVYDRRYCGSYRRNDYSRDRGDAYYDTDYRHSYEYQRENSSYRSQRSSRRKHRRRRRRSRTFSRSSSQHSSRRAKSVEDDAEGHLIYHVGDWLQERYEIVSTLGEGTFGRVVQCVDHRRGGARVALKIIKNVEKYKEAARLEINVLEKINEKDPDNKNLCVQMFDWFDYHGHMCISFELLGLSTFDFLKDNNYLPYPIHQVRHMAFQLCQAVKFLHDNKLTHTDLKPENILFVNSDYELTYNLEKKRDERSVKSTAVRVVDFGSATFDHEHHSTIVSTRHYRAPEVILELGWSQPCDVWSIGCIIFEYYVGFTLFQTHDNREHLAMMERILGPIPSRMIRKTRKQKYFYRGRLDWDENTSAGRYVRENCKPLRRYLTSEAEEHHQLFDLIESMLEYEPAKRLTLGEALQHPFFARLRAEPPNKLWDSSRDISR
UniProt Q9HAZ1: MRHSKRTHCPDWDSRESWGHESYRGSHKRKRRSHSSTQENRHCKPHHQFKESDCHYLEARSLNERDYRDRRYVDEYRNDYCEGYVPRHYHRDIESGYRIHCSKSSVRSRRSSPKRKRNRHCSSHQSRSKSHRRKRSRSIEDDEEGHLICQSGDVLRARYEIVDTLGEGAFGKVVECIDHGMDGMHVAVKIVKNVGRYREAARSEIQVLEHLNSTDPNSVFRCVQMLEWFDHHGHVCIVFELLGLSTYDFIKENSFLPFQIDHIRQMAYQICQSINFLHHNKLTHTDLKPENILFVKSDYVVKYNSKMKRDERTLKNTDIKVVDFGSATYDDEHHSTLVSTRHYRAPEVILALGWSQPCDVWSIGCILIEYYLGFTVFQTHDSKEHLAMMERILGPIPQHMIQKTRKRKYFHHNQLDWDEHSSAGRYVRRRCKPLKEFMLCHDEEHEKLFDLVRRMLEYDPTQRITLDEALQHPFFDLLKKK

Row | Substance | binding [1] | binding [5] | binding [6] | binding [7] | other results
1 | Clk4 fused to GFP (Clk4:GFP) (from UniProt Q9HAZ1 1-481) (enzyme) | binds | – | – | – | –
2 | Clk1 fused to green fluorescent protein (Clk1:GFP) (from UniProt P49759 1-484) (enzyme) | binds | – | – | – | –
3 | Aurora B kinase (endogenous) (from UniProt Q96GD4 1-344) (enzyme) | – | binds | binds | binds | binding [2]: no binding; binding [3]: no binding; binding [4]: no binding
4 | Clk2 fused to GFP (Clk2:GFP) (from UniProt P49760 1-499) (enzyme) | binds | – | – | – | –
5 | Cdc-like kinase 4 (endogenous Clk4) (from UniProt Q9HAZ1 1-481) (enzyme) | – | binds | binds | – | –
6 | Cdc-like kinase 2 (endogenous Clk2) (from UniProt P49760 1-499) (enzyme) | – | binds | – | binds | –
